# According to PubChem BioAssay AID2451 (National Center for Advancing Translational Sciences (NCATS), 2010):
# Several values for one entry are separate records, joined by “and”; a condition that tells them apart may be missing. Identical values can stand only once. The whole screen tested about 290,000 compounds, of which about 2,100 (0.72%) were called active. The inconclusive results got no clear call from the source; some entries with a clear call stand among them for comparison. Calls follow the shape of the dose curve; as a rule, active = well fitted inhibition curve with a large enough effect; inconclusive = small, poorly fitted or top-dose-only effect, or effect the other way; inactive = flat fitted curve, though single readings scatter. Potencies beside an inconclusive call are fits to weak or partial responses and may not hold up.
# Target: Fructose-bisphosphate aldolase (Giardia intestinalis (strain ATCC 50803 / WB clone C6)) (UniProt A8B2U2)
# UniProt A8B2U2, sequence (A8B2U2 whole entry, looked up): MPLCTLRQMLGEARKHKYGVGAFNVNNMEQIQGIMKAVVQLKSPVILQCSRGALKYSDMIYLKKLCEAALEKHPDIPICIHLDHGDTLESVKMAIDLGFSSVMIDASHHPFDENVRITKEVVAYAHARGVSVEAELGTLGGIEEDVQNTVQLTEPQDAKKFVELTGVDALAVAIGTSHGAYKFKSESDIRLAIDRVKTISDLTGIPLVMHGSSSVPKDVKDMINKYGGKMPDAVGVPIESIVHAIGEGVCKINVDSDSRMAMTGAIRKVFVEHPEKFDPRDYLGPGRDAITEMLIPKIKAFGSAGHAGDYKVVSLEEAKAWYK
# Assay: qHTS Assay for Inhibitors of Fructose-1,6-bisphosphate Aldolase from Giardia Lamblia; also: nearly all actives have a fitted effect of over 55% in size
# Conditions: purified Giardia FBPA; activity, negative = inhibition: at 59.6 µM (top of the series) unless noted
# Summary of the method: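 40 nM FBPA preincubated 10 min at RT with compound (up to 57.5 uM final), then substrate plus GAPDH/TPI/NAD/arsenate coupling and diaphorase/resazurin added. Fluorescence read after 20 min at RT, 525/598 nm.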
# % is scaled to controls: 0 for no effect and ±100 for the full control effect; potency is read from the fitted curve at half-maximal effect; tags tell the direction and shape of the fitted curve.
SMILES,"activity, negative = inhibition",Potency
N#Cc1ccccc1OCC(=O)N1CCc2ccccc2C1,inactive: 0.836%,
O=C(COC(=O)c1c2c(nc3ccccc13)CCCC2)Nc1ccc2c(c1)OCO2,inactive: 0.667%,
COc1cccc(CN2CCN(Cc3cc(OC)c(OC)c(OC)c3)CC2)c1OC,,active: 12.6 µM
CN1CCN(c2cc3c(c4c2[nH]c2ccccc24)C(=O)CC(C)(C)C3)CC1,,"inconclusive: 15.8 µM [inhibitor, partial curve]"
Cc1nc2cc(NC(=O)N(C)c3ccc4ccccc4c3)ccc2o1,,"inconclusive: 17.7 µM [inhibitor, partial curve]"
O=C(Nc1cccc(C(F)(F)F)c1)Nc1ccc(N2CCCC2)c(S(=O)(=O)Nc2ccccc2Cl)c1,inactive: -12.4%,
COc1ccc(Cc2nccc3cc(OC)c(OC)cc23)cc1OC,,"inconclusive: 17.7 µM [inhibitor, single point] and inconclusive: 501 nM [inhibitor, full curve]"
CCOC(=O)N/N=C1/C[C@@H](O)[C@@H](O)[C@@H]2[C@@H]3C(=O)N(CC)C(=O)[C@H]3CC[C@@H]12,inactive: 6.74% [at 12.9 µM],
CCOc1ccc(N/C=C/C(=O)c2ccc3ccccc3c2)c([N+](=O)[O-])c1,inactive: 9.55%,
CCC1CCC(N2CCN(c3cccc(OC)c3)CC2)CC1 (centres undefined),,"inconclusive: 14.1 µM [inhibitor, partial curve]"
O=C1CN(C(=O)CNCc2ccccc2Cl)c2ccccc2N1,,"inconclusive: 19.9 µM [inhibitor, partial curve]"
COc1ccccc1C(=O)OC(C)CN1CCN(C)CC1 (centres undefined),,active: 31.6 µM
C=CCN=C1NN=C(c2cc(C)n(CCOC)c2C)CS1,,"inconclusive: 22.3 µM [inhibitor, partial curve]"
Cc1ccc(CNC(=O)C2(C)Oc3ccccc3NC2=O)cc1 (centres undefined),inactive: 2.42%,
Cc1cc(CN2CCCC(CNC(=O)c3ccc(F)cc3)C2)cc(C)c1O (centres undefined),inactive: 0.183%,
CC(=O)N1CCN(Cc2nc3cc(NC(=O)COc4cccc(C)c4)ccc3n2C)CC1,,active: 20 µM
O=C1/C(=N\S(=O)(=O)c2cccs2)C([n+]2ccccc2)=C([O-])c2ccccc21,,"inconclusive: 0.1 µM [inhibitor, full curve]"
COc1ccccc1/C=N/NC(=O)CCSc1ccccc1,,"inconclusive: 17.7 µM [inhibitor, partial curve]"
COc1ccc(C)cc1-n1nnnc1SC/C(O)=C(\C#N)c1nc2ccccc2[nH]1,,"inconclusive: 5 µM [inhibitor, partial curve]"
CCOc1ccc2[nH]c(S(=O)(=O)CC)nc2c1Cl,,active: 3.55 µM
Cc1cccc(C(=O)NNC(=S)NC(=O)c2cccs2)c1,,"inconclusive: 5.01 µM [inhibitor, partial curve]"
COCCn1c(SCC(=O)c2c(-c3ccccc3)n(C)c3ccccc23)nnc1-c1ccncc1,inactive: 5.35%,

SMILES,"activity, negative = inhibition",Potency
COc1ccccc1NC(=S)N(Cc1ccc(C)cc1)Cc1ccccn1,,active: 17.7 µM
COc1cccc(C(=O)/C=C/Nc2ccc(NC(C)=O)cc2)c1,inactive: -0.0082%,
C=CCc1cc(/C=C/c2nc(O)c([N+](=O)[O-])c(=O)[nH]2)cc(OC)c1O,,"inconclusive: 17.7 µM [inhibitor, partial curve]"
COc1ccc(C(=O)/C=C/c2ccc(OC(=O)c3cc(OC)c(OC)c(OC)c3)cc2)cc1,inactive: 3.83%,
Cc1ccc(C(C[N+](=O)[O-])Sc2ccc(N)cc2)cc1 (centres undefined),,"inconclusive: 19.9 µM [inhibitor, partial curve]"
Cc1ccc(N2C(S)=C(C#N)C(=O)NC23CCCCC3)cc1,,"inconclusive: 8.89 µM [inhibitor, partial curve]"
CCCNC(=O)c1ccccc1NS(=O)(=O)c1ccc2c(c1)OCCO2,,"inconclusive: 12.6 µM [activator, partial curve]"
C/C(=N\S(=O)(=O)c1ccc(C)cc1)NC(=S)Nc1ccc(C)cc1,,"inconclusive: 22.3 µM [inhibitor, single point]"
COc1cccc(C2CC(=O)C3=C(C2)Nc2ccccc2N(C(=O)CCC(=O)O)C3c2ccc(F)cc2)c1 (centres undefined),,"inconclusive: 35.4 µM [activator, single point]"
CS(=O)(=O)N(CC(=O)N1CCN(c2cccc(Cl)c2)CC1)C1CCCCC1,inactive: -0.665%,
COc1ccc(NCc2ccc([N+](=O)[O-])s2)c(OC)c1,,"inconclusive: 19.9 µM [inhibitor, partial curve]"
O=C(c1ccccc1)N1CCN(C2CC3CCC2C3)CC1 (centres undefined),,"inconclusive: 15.8 µM [inhibitor, partial curve]"
S=C1NC(c2ccccc2)N2C(=S)NC(c3ccccc3)N12 (centres undefined),,"inconclusive: 17.7 µM [inhibitor, partial curve]"
CC(=O)c1c(N)[nH]c(-c2ccccc2)nc1=S,,"inconclusive: 22.3 µM [activator, single point]"
CC1CN(CCCCSc2ccc(Cl)cc2)CC(C)O1 (centres undefined),,"inconclusive: 14.1 µM [inhibitor, partial curve]"
COc1ccc(NC2CCCN(C(=O)C3=NN(C)C(=O)CC3)C2)cc1OC (centres undefined),,"inconclusive: 15.8 µM [inhibitor, partial curve]"
CCCS(=O)(=O)c1c(S(=O)(=O)CCC)c2c(N)cccn2c1C(=O)c1ccc(F)cc1,,"inconclusive: 15.8 µM [inhibitor, partial curve]"
CCNC(=S)NS(=O)(=O)c1ccccc1,,active: 7.92 µM
CCOC(=O)CCc1c(C)c(C#N)c2[nH]c3ccccc3n2c1=O,,"inconclusive: 3.15 µM [inhibitor, partial curve]"
COc1ccc(CCN(C)C(=O)C2CCN(Cc3ccc(C)cc3)CC2)cc1OC,,"inconclusive: 19.9 µM [inhibitor, partial curve]"
C=CCSC1=N/C(=C\c2cc(OCC)c(OC(C)=O)c([N+](=O)[O-])c2)C(=O)S1,,"inconclusive: 17.7 µM [inhibitor, partial curve]"
CC(C)(C)c1ccc(C(=O)NNc2cc(N3CCOCC3)nc(N3CCOCC3)n2)cc1,,"inconclusive: 31.5 µM [inhibitor, single point]"
